Among the data in PubChem BioAssay AID1240 (Sanford-Burnham Center for Chemical Genomics, 2008) are displacement values, retold here.

About 800 (1.6%) of roughly 50,000 compounds showed an effect of 50% or more. This is one part of the list.

In the assay the target is Bcl-2-like protein 10 (Homo sapiens) (UniProt Q9HD36). In words: Phenotype converters, Bcl-B/TR3 peptide binding displacement, primary biochemical FP (AID 1240).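 Further: 0% = Bcl-B with tracer peptide and DMSO and 100% = tracer peptide lacking Bcl-B.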 The settings on record: GST-Bcl-B / FITC-TR3 peptide fluorescence polarization; stronger effect = higher value; compound at 3.75 mg/L. (In general: Polarisation of emitted light reports the rotation of a fluorescent probe.)
Sequence of UniProt Q9HD36 (Q9HD36 whole entry, looked up): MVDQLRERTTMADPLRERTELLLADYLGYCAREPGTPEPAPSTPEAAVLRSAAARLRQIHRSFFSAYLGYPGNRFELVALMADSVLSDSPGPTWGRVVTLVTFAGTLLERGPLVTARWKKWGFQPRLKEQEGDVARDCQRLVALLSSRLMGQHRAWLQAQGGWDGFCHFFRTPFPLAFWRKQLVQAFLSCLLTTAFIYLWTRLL
`CC(C)c1ccc(CNC(=O)CSc2nc3ccccc3[nH]2)cc1`: the displacement was -8.9%.
As for `CC(C)C(=O)NC(=S)N1CCOCC1`, the figure is 9%.
As for `O=C(O)c1cc(-c2ccc(Cl)cc2)nc2ccc(Br)cc12`, the figure is -8%; as for `Cc1ccc(CN2CCN(N=Cc3sccc3C)CC2)c(C)c1`, -5.8%.
As for `O=C(Nc1ccc(Cl)cc1)Nc1nnc(COc2ccc(Cl)cc2Cl)s1`, the figure is 2.4%.
On to `CCn1c2ccccc2c2cc(CN3CCN(Cc4cc(OC)c(OC)cc4[N+](=O)[O-])CC3)ccc21`, for which the displacement stood at 21.1%.
Take `CC(=O)OCCN1C(=O)c2ccc(Oc3cccc(Oc4ccc5c(c4)C(=O)N(CCOC(C)=O)C5=O)c3)cc2C1=O`: the displacement was found to be 4.4%.
The same measure for `CCOC(=O)COc1ccc(C=Nc2ccc3[nH]c(=O)[nH]c3c2)cc1OC`: 12.1%; for `CCNC(=O)/C(C#N)=C/c1ccc(C(C)(C)C)cc1`: 1.1%.
As for `CCOc1cccc(C(=O)Nc2nnc(C)s2)c1`, the figure is 9.5%; as for `Clc1ccc(Cl)c(OCCOCCN2CCOCC2)c1`, 12.6%; as for `COc1ccc(C(C)NC(=O)CN(c2ccc(OC)cc2OC)S(=O)(=O)c2ccccc2)cc1` (stereo unspecified), -12.5%.
As for `Cc1sc2ncnc(Nc3cccc(Cl)c3)c2c1C`, the figure is -5.7%; as for `O=C(NC1CCCC1)c1cc(-c2ccc(Cl)cc2)nc2ccccc12`, -0.9%; as for `Cc1ccc(C(=O)c2sc3nc4c(cc3c2N)CCC4)c(C)c1`, -7.9%.
Consider `CCOc1cc(OCC)cc(C(=O)Nc2ccc(-c3nc4ncccc4o3)cc2)c1`, for which the displacement came out at 0.6%.
As for `COc1ccc(Cl)cc1C(=O)Nc1ccc(I)cc1Cl`, the figure is 0.4%; as for `O=C(Nc1ccc(Br)c(Cl)c1)C(c1ccccc1)c1ccccc1`, 7.6%.
The same measure for `COc1ccc(S(=O)(=O)N2CCN(C(C)C)CC2)cc1`: 10%.
Turning to `C=CCOc1c(Br)cc(/C=C2\C(=O)NC(=O)N(c3ccccc3)C2=O)cc1OC`, the displacement was 15.7%.
As for `CC(C)(C)c1csc(NC(=O)c2ccc(Cl)c([N+](=O)[O-])c2)n1`, the figure is 2.9%.
The same measure for `CC(C)NC(=O)NCC12CC3CC(CC(C3)C1)C2`: 14%.
As for `Cc1ccc(S(=O)(=O)N/N=C/c2cccc(OS(=O)(=O)c3ccc(C)cc3)c2)cc1`, the figure is -0.2%; as for `CCCCNC(=O)c1cc2nc(-c3ccc(OCC)cc3)cc(C)n2n1`, 3.4%; as for `O=C(c1ccccc1)N1CCN(c2ccc(Cl)cc2)CC1`, 7.8%.
Turning to `COC(=O)c1ccccc1NC(=O)c1cc(-c2ccccc2)nc2ccccc12`, the displacement is -2.3%.
As for `COc1ccc(Cl)cc1C(=O)NCCCN(C)C`, the figure is -7%; as for `COc1ccc(C2CC(c3ccccc3)=CC(O)(C(C)(C)C)C2C(=O)C(C)(C)C)cc1` (stereo unspecified), 0.9%; as for `CC(=O)c1ccc(-c2ccc(/C=C3/SC(=S)N(c4ccccc4)C3=O)o2)cc1`, 20.5%.
The same measure for `CC1CCc2c(sc3nc(-c4ccco4)[nH]c(=O)c23)C1` (stereo unspecified): 11%; for `O=C1NC(=O)C(=Cc2ccccc2OCCOc2ccccc2)C(=O)N1`: 11%; for `CC(=O)c1ccc(NC(=O)COc2ccc3ccccc3c2)cc1`: 3.9%.
The same measure for `O=C(Nc1ccc(-c2nc3ccccc3s2)cc1)c1cc2ccccc2oc1=O`: 9.2%; for `O=C(O)CCCN1C(=O)C(=O)/C(=C(/O)c2ccccc2)C1c1ccc(Cl)cc1` (stereo unspecified): -0.2%.
For the compound `Cc1ccc(C(=O)Nc2ccc(S(=O)(=O)Nc3ncccn3)cc2)cc1[N+](=O)[O-]`, the displacement is 16.9%.
As for `COc1cccc(OC)c1OCCCOc1c(OC)cccc1OC`, the figure is 14.9%; as for `O=C(Nc1cccc(C(F)(F)F)c1)c1ccc(I)cc1`, 7.8%.
The same measure for `CCCCOc1ccc(-c2nc(-c3ccc(C)cc3)no2)cc1`: -9.7%; for `Cc1c(C(=O)Nc2ccc3nn(-c4ccccc4)nc3c2)cccc1[N+](=O)[O-]`: 0.9%.
The same measure for `CCOC(=O)C(=CNc1cccc(C)c1C)C(=O)OCC`: -15.2%; for `CCOc1ccccc1C1C(C(=O)OC)=C(C)N(C)C(C)=C1C(=O)OC`: -9.1%; for `COc1ccccc1Cc1noc(-c2ccc(C)cc2)n1`: -5.3%.
With `NC(=O)c1c(NC(=O)c2cccs2)sc2c1CCCC2`, the displacement was determined as 8.9%.
As to `CC(=O)Oc1ccc(NC(=O)CC2SC(N)=NC2=O)cc1` (stereo unspecified), the displacement is 6.3%.
The same measure for `Cc1ccc(C2Nc3ccccc3NC3=C2C(=O)CC(c2ccccc2)C3)s1` (stereo unspecified): 7.3%.
The same measure for `O=C(N/C(=C\c1ccc(Br)cc1)C(=O)N1CCCCCC1)c1cccs1`: 3.9%; for `COc1ccc(NC(=O)NC(c2ccccc2)c2ccccc2)cc1OC`: -11.5%; for `Oc1ccc(Br)cc1CN1CCN(CC2CC3C=CC2C3)CC1` (stereo unspecified): 6.8%.
The same measure for `CCOc1cc(/C=C(\C#N)c2nc3ccccc3[nH]2)cc(I)c1OC`: 1.8%; for `COc1cc(NS(=O)(=O)c2ccccc2)cc(OC)c1`: 21.8%; for `Oc1ccc(Br)cc1CN1CCN(Cc2cccnc2)CC1`: -6.7%.
On to `CCOc1cc(C2Nc3ccccc3NC3=C2C(=O)CC(c2ccc(OC)c(OC)c2)C3)cc([N+](=O)[O-])c1O` (stereo unspecified), for which the displacement was -0.9%.
As for `COc1ccc(NC2CC(=O)N(c3ccc(I)cc3)C2=O)cc1` (stereo unspecified), the figure is -3.4%.
Take `NC(=O)NC(c1ccccc1)c1ccc(F)cc1` (stereo unspecified): the displacement was found to be 9.3%.
The same measure for `CCCOc1ccc(C(=O)CCc2ccccc2)cc1OCCC`: 10.6%; for `CC1(c2ccc([N+](=O)[O-])cc2)CC1(Br)Br` (stereo unspecified): 6.1%.
As to `C(=N/N1CCN(c2ccccc2)CC1)/c1ccncc1`, the displacement is -4.6%.
The same measure for `Cc1c(C(=O)NCCC(C)C)cccc1[N+](=O)[O-]`: 4.7%; for `COC(=O)C1=NN(C(=O)c2cccc([N+](=O)[O-])c2)C(O)(c2ccccc2)C1` (stereo unspecified): -13.3%; for `N#C/C(=C/c1cc2c(cc1[N+](=O)[O-])OCO2)C(=O)Nc1ccc(F)cc1`: -0.4%.
On to `COc1ccc(CCNC(=O)C(=O)NCc2ccco2)cc1`, for which the displacement was found to be 8.6%.
Take `O=C(Nc1ccc(Cc2ccc(NC(=O)c3cccnc3)cc2)cc1)c1cccnc1`: the displacement amounted to 4.5%.
The same measure for `CN1CCN(C(=O)c2ccccc2NC(=O)c2cccs2)CC1`: 3%; for `COC(=O)c1cccc(NC(=O)CC(=O)c2ccccc2)c1`: -21.1%.
The same measure for `COc1cccc(N2C(=O)CC(N3CCN(C/C=C/c4ccccc4)CC3)C2=O)c1` (stereo unspecified): 0.3%; for `CC(C)=C1C2CCC1C(C(=O)NCc1ccccc1)C2C(=O)O` (stereo unspecified): 6.9%; for `Cc1ccc(N=C2NC(=O)/C(=C/c3cccc(O)c3)S2)cc1Cl`: -8.6%.
As for `CCCOC(=O)c1ccc(NC(=S)NC(=O)COc2ccccc2)cc1`, the figure is -2.7%; as for `CCOc1ccc(N2C(=O)/C(=C\c3cccc(OC)c3OC)C(C(=O)OC)=C2C)cc1`, -10.1%.
For the compound `OCCNCCOc1ccc(Br)cc1`, the displacement was determined as 13.4%.
As for `CC(=O)Oc1cccc(C(=O)Nc2ccc(OCC(=O)O)cc2)c1`, the figure is -3%.
The same measure for `O=C1NC(=O)N(c2ccc3c(c2)OCO3)C(=O)/C1=C/c1ccc(Sc2ccccc2)o1`: -3.9%.
Take `Cc1ccc(NC(=O)c2c(-c3c(F)cccc3Cl)noc2C)cc1`: the displacement is 5.7%.
The same measure for `Cc1ccc(OCC(=O)Nc2cccc(Cl)c2C)c(Br)c1`: -7%.
As for `O=C(NCc1ccccc1)c1nn2c(c1Br)NC(c1cccs1)CC2C(F)(F)F` (stereo unspecified), the figure is -1.2%; as for `NC(=O)c1c(NC(=O)c2ccccc2F)sc2c1CCC2`, 4.4%.
As for `CC(=O)c1ccc(NC(=S)NC(NC(=O)c2ccccc2Cl)C(Cl)(Cl)Cl)cc1` (stereo unspecified), the figure is -3.8%; as for `CCOC(=O)c1c(NC=O)sc2c1CCC/C2=N\O`, 148%.
Regarding `O=C(O)CC(NC(=O)c1ccc(Cl)cc1)c1ccccc1` (stereo unspecified), the displacement worked out at 9%.
The same measure for `O=C(CSc1ccccn1)Nc1ccc(F)cc1`: -11.4%; for `Nc1c(NCCN2CCCC2)c2ccccc2oc1=O`: -3.6%; for `Cc1cc(C)cc(NC2=C(Cl)C(=O)N(c3cccc(Cl)c3)C2=O)c1`: 7%.
The same measure for `c1ccc(CCCN2CCN(Cc3ccncc3)CC2)cc1`: -9.7%.
The same measure for `CC(C)(C)C(=O)/C=C(N)\C=C\c1ccccc1`: 8.9%; for `CC(C)(C)c1cc(C(=O)N/N=C/c2ccc(Br)cc2)n[nH]1`: -2%; for `O=C1OC(c2ccc(Cl)cc2)=C/C1=C/c1ccc(-c2ccccc2[N+](=O)[O-])o1`: -34%.
Regarding `O=C(CSc1nc2ccccc2s1)OCC(=O)c1cccc([N+](=O)[O-])c1`, the displacement is -14.1%.
For `COC(=O)c1ccc(NC(=O)CC(c2ccccc2)c2ccccc2)cc1`, the displacement was -0.2%.
As for `O=C(O)Cc1ccc(OCCCCOc2ccc(CC(=O)O)cc2)cc1`, the figure is -8.4%.
As for `Cc1ccccc1N=Cc1c(O)n(-c2ccccc2Cl)c(=O)[nH]c1=O`, the figure is -8.2%; as for `Cc1ccnc(NC(=O)c2cc3ccccc3o2)c1`, -0.4%; as for `CCc1ccc(C(=O)CC2(O)C(=O)Nc3ccccc32)cc1` (stereo unspecified), 12.9%.
For `O=C(Cc1cccc2ccccc12)NCc1ccco1`, the displacement was 12.2%.
The same measure for `O=C1/C(=C\c2ccc(-c3ccc([N+](=O)[O-])cc3Br)o2)Sc2ccccc21`: -17.8%; for `O=C(/C=C/c1ccccc1)NC(CCC(=O)OCc1ccccc1)C(=O)OCc1ccccc1` (stereo unspecified): 8.2%; for `Cc1cc2oc(=O)cc(C)c2cc1[N+](=O)[O-]`: 12.4%.
The same measure for `CCC(C(=O)N1CCc2ccccc21)c1ccccc1` (stereo unspecified): 11.1%; for `COc1ccc(NC(=O)COc2cccc3ccccc23)cc1`: 13.5%; for `CC/C(=C/C(=O)c1ccncc1)Nc1cccc(O)c1`: 6.6%.
As for `c1ccc2c3c([nH]c2c1)/C(=N/N=C1CCCCC1)CCC3`, the figure is -14.4%.
Turning to `COc1ccc2c(oc(=O)c3ccccc32)c1C`, the displacement came to 9.8%.
The same measure for `Cc1cccc(-c2nnc(NC(=O)Nc3ccccc3)s2)c1`: 11.9%.
For `O=C(Nc1cccnc1)c1ccc(-c2ccc(Cl)cc2)o1`, the displacement came to 17.7%.
The same measure for `CCC1CCc2c(sc(NC(=O)c3ccc4c(c3)OCO4)c2C(=O)OC)C1` (stereo unspecified): -12.3%.
As for `CC(=O)Oc1cccc2ccc(=O)[nH]c12`, the figure is 11.4%; as for `COc1cccc(C2C(C(C)=O)=C(O)C(=O)N2c2nc3ccccc3s2)c1` (stereo unspecified), 7.7%.
The same measure for `CCOc1ccc(C2/C(=C(\O)c3ccc(Cl)cc3)C(=O)C(=O)N2c2cccnc2)cc1` (stereo unspecified): -8.7%; for `COc1ccc(S(=O)(=O)N/N=C/c2cc3c(cc2Cl)OCO3)cc1`: -7.7%; for `CCCOC(=O)C1=C(C)NC2=C(C(=O)CC(c3ccc(OC)cc3)C2)C1c1ccc(OCc2ccccc2)c(OC)c1` (stereo unspecified): 2.2%.
Take `CCN(CC)CCCN1C(=O)C(C)SC1c1ccccc1[N+](=O)[O-]` (stereo unspecified): the displacement was 1.6%.
The same measure for `CCCCOc1ccc(S(=O)(=O)n2nc(C)cc2C)cc1`: 2.3%.
